Test results published in PubChem BioAssay AID1030 (National Center for Advancing Translational Sciences (NCATS), 2008).
In all, about 220,000 compounds went through this assay and about 16,000 (7.3%) were called active. Inconclusive results, whose numbers are uncertain, are shown with a selection of clear calls. Calls come from the whole dose curve; as a rule, active = well fitted inhibition curve with a large enough effect (not every such curve was filed as active); inconclusive = small, poorly fitted or top-dose-only effect, or another doubt; inactive = no such curve, though single readings can be large or run the other way. Potencies of inconclusive entries are left out as doubtful fits.

biological target: Aldehyde dehydrogenase 1A1 (Homo sapiens) (UniProt P00352); experiment: qHTS Assay for Inhibitors of Aldehyde Dehydrogenase 1 (ALDH1A1); conditions: Purified ALDH1A1, NADH fluorescence, propionaldehyde substrate; series mostly up to 75.3 µM
Chain of UniProt P00352 (P00352 whole entry, looked up): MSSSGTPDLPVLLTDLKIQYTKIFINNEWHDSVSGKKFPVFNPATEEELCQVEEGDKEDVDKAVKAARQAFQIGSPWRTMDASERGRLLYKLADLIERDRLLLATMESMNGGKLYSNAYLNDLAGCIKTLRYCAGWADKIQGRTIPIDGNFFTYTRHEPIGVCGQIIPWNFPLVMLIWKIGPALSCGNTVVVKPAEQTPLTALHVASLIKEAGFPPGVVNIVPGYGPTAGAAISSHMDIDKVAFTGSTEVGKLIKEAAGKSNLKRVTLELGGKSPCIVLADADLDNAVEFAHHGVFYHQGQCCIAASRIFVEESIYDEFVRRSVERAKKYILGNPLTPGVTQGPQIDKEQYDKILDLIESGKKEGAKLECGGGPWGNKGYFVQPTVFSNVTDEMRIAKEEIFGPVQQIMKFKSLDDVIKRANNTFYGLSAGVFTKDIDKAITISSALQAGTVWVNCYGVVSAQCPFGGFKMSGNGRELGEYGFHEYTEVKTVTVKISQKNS
Potency is the fitted concentration of half-maximal effect; tags give direction and shape of the fitted curve.

Q: How did the Potency turn out when `Cc1cc(/C=N/n2cnnc2)c(C)n1-c1ccc(Cl)cc1Cl` was run?
A: The Potency was inconclusive [inhibitor, full curve, poor fit].

Q: How did the Potency turn out when `COc1cc(OC)cc(C(=O)N2CCC(N3CCCCCC3)CC2)c1` was run?
A: Its Potency is “inactive”.

Q: With `CC1=C(C(=O)N2CCOCC2)C(c2ccc(C)cc2)NC(=S)N1` (stereo unspecified) as the molecule, how does the Potency read?
A: The Potency was active: 17.8 µM.

Q: Which Potency does the source give for `Cn1c(=O)c(-c2cc(F)cc(F)c2)nc2cnc(Nc3ccccc3)nc21` here?
A: The Potency was “inactive”.

Q: `CCCCC(c1nnnn1CCOC)N1CCN(C)CC1` (stereo unspecified) was tested. Which Potency did it give?
A: Its Potency is “inactive”.

Q: For `CCn1c(O)c(C=Nc2ccccc2)sc1=S`, which Potency is on record?
A: Its Potency is inconclusive [inhibitor, partial curve].

Q: Which Potency does the source give for `Cc1ccc(C(=O)OCC(=O)Nc2sc3c(c2C#N)CCC3)cc1` here?
A: Its Potency is active: 25.1 µM.

Q: With `Cc1ccc(NCc2nnc(SCC(=O)c3ccccc3)o2)c(C)c1` as the molecule, how does the Potency read?
A: Its Potency is “inactive”.

Q: `CC1CC(C)CN(C(=O)c2cc3c(s2)CCC3)C1` (stereo unspecified) was tested. Which Potency did it give?
A: The Potency was inconclusive [inhibitor, single point].

Q: How did the Potency turn out when `Cn1c(CCNC(=O)OC(C)(C)C)n[nH]c1=S` was run?
A: Its Potency is “inactive”.

Q: Which Potency does the source give for `O=[N+]([O-])c1ccc(/C=N/NS(=O)(=O)c2ccc(Cl)cc2)o1` here?
A: Its Potency is active: 7.94 µM.

Q: For `O=C(CN1CCN(c2ccc(O)cc2)CC1)NC1CCCc2ccccc21` (stereo unspecified), which Potency is on record?
A: The Potency was active: 11.2 µM.

Q: Which Potency does the source give for `Cc1ccc([N+](=O)[O-])cc1NC(=O)CN(C(=O)c1ccccc1Cl)C1CCCCC1` here?
A: The Potency was inconclusive [inhibitor, single point].

Q: For `COc1ccc(Nc2nc(-c3c[nH]c4ccccc34)cs2)cc1`, which Potency is on record?
A: Its Potency is inconclusive [inhibitor, single point].

Q: Which Potency does the source give for `CC(C)(C)C1CCc2c(C(=O)NNC(=O)/C=C/C(=O)O)csc2C1` (stereo unspecified) here?
A: Its Potency is inconclusive [inhibitor, partial curve].

Q: With `CC(NC(=O)NC(N)=O)(C(F)(F)F)C(F)(F)F` as the molecule, how does the Potency read?
A: The Potency was “inactive”.

Q: With `C/C(CC(=O)Nc1ccc(C)c(Cl)c1)=N\NC(=O)Cc1ccccc1` as the molecule, how does the Potency read?
A: The Potency was inconclusive [inhibitor, single point].

Q: `COc1ccc(Oc2nc3ccccc3n3cccc23)cc1` was tested. Which Potency did it give?
A: The Potency was inconclusive [inhibitor, single point].

Q: `COc1ccc(OC)c2[nH]c(=O)c(CCNC(=O)c3ccc(S(=O)(=O)N4CCCCC4)cc3)cc12` was tested. Which Potency did it give?
A: Its Potency is inconclusive [inhibitor, full curve].

Q: For `CS(=O)(=O)N1CCN(c2ccc(NC(=S)NC(=O)c3ccccc3[N+](=O)[O-])cc2)CC1`, which Potency is on record?
A: Its Potency is inconclusive [inhibitor, single point].

Q: With `CCCCNC(=O)c1c[nH]c2ccc(S(=O)(=O)N3CCOCC3)cc2c1=O` as the molecule, how does the Potency read?
A: Its Potency is inconclusive [inhibitor, partial curve].
